Data: ChEMBL document CHEMBL4888484, “Replenishing the malaria drug discovery pipeline: Screening and hit evaluation of the MMV Hit Generation Library 1 (HGL1) against asexual blood stage Plasmodium falciparum ,using a nano luciferase reporter read-out” (2022)
Screen size: about 150,000 compounds; about 540 (0.36%) showed an effect of 50% or more. Some of the results follow.

tested on: Plasmodium falciparum; assay: Primary screen in NF54 nanoGlo assay, in single point, at 2uM, 72h; a lower Z score goes with more inhibition; type: functional, Erythrocyte; settings: timepoint 72 hour

Row | SMILES | % Inhibition | Z score
1 | CC(C)CS(=O)(=O)N1CCC(F)(F)CC1 | -14% | 1.77
2 | CC(Cn1cncn1)NC(=O)N1CCCC1c1ccncc1 (configuration not stated) | -15% | 1.41
3 | COc1ccc(CCc2nc(-c3cn(-c4ccccc4)nn3)no2)cc1 | -22% | 4.36
4 | COc1ccccc1N(CCC(N)=O)C(=O)CN[C@H](c1ccncc1)C(C)C | 12% | -1.37
5 | CC[C@H]1C=CCN1C(=O)c1cccc(S(=O)(=O)N[C@H]2CC[C@H](O)CC2)c1 | -8% | 0.78
6 | CCCNC(=O)N[C@@H]1C[C@H](COc2ccc(S(C)(=O)=O)cc2)[C@@H](O)[C@H]1O | -1% | 0.14
7 | C[C@H]1CCN(Cc2cccc3[nH]ccc23)CCS1(=O)=O | -2% | 0.42
8 | COc1ccccc1S(=O)(=O)N1C2CCC1CC(n1ccnc1)C2 (configuration not stated) | -16% | 2.04
9 | O=C(NCCCn1ccnc1)c1ccc(-n2cccn2)nn1 | -2% | 0.26
10 | COc1ccc(NC(=O)C2Cc3ccccc3N3CCN(CCOc4ccccc4)CC23)cc1OC (configuration not stated) | -4% | 0.65
11 | Cc1cnc(N2CC[C@H](O)C2)nc1N1CC[C@H](O)C1 | -7% | 1.17
12 | O=C1CC[C@H](C(=O)N2CCOC3CCCCC32)N1 (some centres not stated) | 2% | -0.45
13 | O=C(O)[C@@H]1CCCN1Cc1ccc(C2CCCC2)s1 | -10% | 1.24
14 | CC(C)CCS(=O)(=O)N(C)CCCN1CCN(C)CC1 | 11% | -1.41
15 | C[C@@H](C(=O)Nc1ccc(S(=O)(=O)N2CCCC2)cc1)N1CCN(c2ccccc2O)CC1 | -7% | 1.19
16 | O=C(COc1ccc(F)cc1)N1CCCC[C@@H]1CCN1CCCCC1 | -5% | 0.73
17 | O=C(O)[C@H]1CC[C@@H](C(=O)N2CCc3c(Cl)cccc3C2)C1 | 1% | -0.23
18 | CC1(C)[C@H](C(=O)NC2CCCCC2)CC[C@]1(C)C(=O)O | -2% | 0.26
19 | O=S(=O)(NCC(F)F)c1ccc(OCC(F)(F)F)nc1 | -8% | 0.92
20 | Nc1nccc(N2CC[C@H]3[C@H](CCC(=O)N3CCC3=CCCCC3)C2)n1 | -3% | 0.54
21 | CCOc1ccc(OCc2n[nH]c(CCc3ccncc3)n2)cc1 | 9% | -1.2
22 | CC(N[C@@H](C)CO)c1ccc(Br)cc1F (some centres not stated) | -4% | 0.54

Row | SMILES | % Inhibition | Z score
23 | O=C1CCC2(CCN(S(=O)(=O)c3ccc(F)cc3F)CC2)N1 | 36% | -0.7
24 | O=C(N[C@@H]1c2ccccc2C[C@H]1O)N1CCN(C(=O)c2ccc[nH]2)CC1 | 0% | -0.07
25 | CC[C@H](C)NC(=O)c1noc(C)c1Cn1nc(C)cc1C | -19% | 1.9
26 | CN(CC1CCCC1)C(=O)NCCOCCS(N)(=O)=O | 4% | -0.4
27 | CC(=O)N(C)Cc1cn(-c2cc(C)cc(C)c2)nn1 | 3% | -0.46
28 | CCCn1nnc2cc(S(=O)(=O)N3CCC[C@H](C(=O)NCc4cccc(C)c4)C3)ccc21 | -25% | 2.24
29 | CCNc1nccnc1N1CCC[C@H](CC(N)=O)CC1 | -8% | 1.45
30 | C[C@H]1CCCN(c2cc(C(=O)Nc3cccc(N4C(=O)CNC4=O)c3)ccn2)C1 | -3% | 0.4
31 | CC(C)n1cc(-c2nc(CCN3CCCC3=O)no2)cn1 | -10% | 1.39
32 | O=S(=O)(c1ccc(-c2nnc(C3CCC3)o2)o1)N1CCCC1 | -2% | 0.29
33 | N#Cc1ncn(CC(=O)NCc2ccc3c(c2)OCO3)n1 | 2% | -0.23
34 | Cc1nc(N2CCOCC2)cc(N2CCN(C(=O)c3ccc(Cl)cc3)CC2)n1 | 0% | -0.04
35 | Fc1ccc(CC[C@H]2CCCNC2)cc1F | -9% | 1.01
36 | CC(C)=CCN1CC2(CCN(C(=O)c3ccc(CO)o3)CC2)CC1=O | -1% | 0.21
37 | C=CCN1C(=O)COc2ccc(NC(=O)c3snnc3C)cc21 | -2% | 0.16
38 | COc1ccc(C(=O)NCCc2ncc(C)n2CC2CC2)cn1 | -3% | 0.28
39 | COc1ccc(C(=O)NCC2CCCC2NS(C)(=O)=O)nn1 (configuration not stated) | 1% | -0.09
40 | COCCn1c(=O)c2sccc2n(CC(=O)N2CCN(c3ccc(OC)cc3)CC2)c1=O | 7% | -0.84
41 | Cc1ccc2c(c1)C(=O)N(CCCC(=O)N1CCC(c3c[nH]c4ccccc34)CC1)C2=O | -1% | 0.28
42 | CCC(=O)N1CC23C=CC(CC2CC12CCCCC2)O3 (configuration not stated) | -5% | 0.75
43 | Cn1cc(-c2ccccc2)c(NC(=O)NCCC(=O)N2CCCCCC2)n1 | 7% | -1.08
44 | Cc1csc(NC2CCN(C(=O)c3cscc3C(F)(F)F)CC2)n1 | -7% | 0.98

Row | SMILES | % Inhibition | Z score
45 | CN(C)S(=O)(=O)N1CCC(CNC(=O)Cc2c(F)cccc2Cl)CC1 | 3% | -0.37
46 | N=C(N)Nc1nc(CCN2C(=O)c3ccccc3C2=O)cs1 | -14% | 2.64
47 | COc1ccc(CCC(=O)N2C(C(=O)O)CC3CCCCC32)c(OC)c1OC (configuration not stated) | -8% | 0.9
48 | CCc1nc(CC)n(Cc2ccccn2)n1 | -11% | 1.19
49 | CCOc1ccccc1CN1C(=O)C2(OCCO2)c2ccccc21 | -3% | 0.63
50 | Cc1ccc(-c2nc(CCNS(=O)(=O)c3ccc(C4CCCCC4)cc3)n[nH]2)cc1 | -6% | 1.04
51 | CN1C(=O)[C@H](O)N(c2cccc3ccccc23)C1=O | 32% | -0.44
52 | COc1ccc(C2CN(C(=O)c3ccccc3)CC2C(=O)NC2CC2)c(OC)c1 (configuration not stated) | 3% | -0.46
53 | CCCc1csc(CCN2CCOC2=O)n1 | -15% | 2.36
54 | Cc1cc(C)c(C)c(S(=O)(=O)N2CCC[C@H]2c2nc(-c3cccc(Cl)c3)no2)c1C | -1% | 0.15
55 | C=CCOc1ccccc1CN(CC(=O)N1CCNC1=O)c1ccc(C)c(C)c1 | -3% | 0.34
56 | Cc1noc(C)c1CNc1ccc(S(=O)(=O)N2CCCC2)cc1 | -2% | 0.28
57 | COC1(CNC2CC(c3ccc(F)cc3)C2)CCOCC1 (configuration not stated) | -15% | 2.86
58 | COC(=O)c1cn(-c2cccc(C)n2)cn1 | 3% | -0.42
59 | Cc1cc(CNC(=O)NCCCOc2cccc(C)c2C)n(C)n1 | -7% | 0.88
60 | CC(C)(C)OC(=O)N1CCC(CC(=O)NCc2cncc(C3CC3)c2)CC1 | -7% | 0.78
61 | Cc1ccc(C)n1CC(=O)N1CCc2[nH]c3ccc(F)cc3c2C1 | -16% | 1.97
62 | Cc1ncccc1C(=O)N1CCC[C@H]1c1nc(CCOCC2CC2)no1 | -4% | 0.54
63 | CCc1c(C)noc1NC(=O)c1cncn1C | -3% | 0.38
64 | CCCN(CCC)C(=O)Cn1nc2c(N3CCN(c4ccccc4C)CC3)nccn2c1=O | -26% | 2.47
65 | Fc1ccc(-c2csc(-c3nc(-c4ccc(Cl)cc4)cs3)n2)cc1 | -2% | 0.19
66 | CC#CCOc1ccc(Cl)cc1C(N)=O | -9% | 1.54

Row | SMILES | % Inhibition | Z score
67 | Cc1nc2ccccn2c1CN(C)C(=O)c1cc(C(C)C)no1 | -11% | 2.03
68 | COc1ccccc1CNc1nc(-c2ccco2)n[nH]1 | -12% | 1.08
69 | CC(C)(C)c1cc(Oc2ccc(-n3cncn3)cc2)ncn1 | 5% | -0.62
70 | COc1ccc(OC)c(CNC(=O)C2CCN(c3ccc(-c4cccc(C)c4)nn3)CC2)c1 | 3% | -0.43
71 | O=S(=O)(CCc1ccc2c(c1)CCO2)N1CCOc2cc(F)ccc21 | -15% | 2.44
72 | NC(N)=Nc1nc(C2CCC(F)(F)CC2)cs1 | 4% | -0.54
73 | COCCN1CC[C@H](CN(C)c2ccncn2)C1 | 1% | -0.2
74 | COc1cc(NC(=O)Cn2c(=O)n(C)c(=O)c3c2c(-c2ccccc2)cn3C)cc(OC)c1OC | 46% | -6.22
75 | CN(C(=O)C[C@](C)(O)c1ccccc1)c1ccc2c(c1)CCO2 | -6% | 0.8
76 | CCN(CC(F)F)C(=O)Nc1cc(Cl)ccc1Cl | -11% | 1.71
77 | CC(C)(O)CN1CCN(Cc2nc(C(=O)N3CCN(c4ccccc4)CC3)co2)CC1 | -9% | 0.84
78 | COc1cc(C)ccc1NC(=O)N1CCC[C@@H]1Cn1cncn1 | -12% | 1.79
79 | COc1ccc2c(c1)[C@]1(C)CCCc3c(O)c(-c4ccccc4)c(=O)n-2c31 | -9% | 1.17
80 | Cc1csc2c(N[C@H]3CCN(C4CCCC4)C3)ncnc12 | -6% | 0.66
81 | COc1cc(-c2nc(=O)c(CCC(=O)NCCN(C)C)n[nH]2)ccc1OCc1cccc(F)c1 | -8% | 0.73
82 | CN1C(=O)[C@@H](NC(=O)NCCc2cnc3c(Cl)cnn3c2)Cc2ccccc21 | -2% | 0.28
83 | Cc1cc(C)cc(C(=O)N[C@@H](C)c2nnc3c(=O)[nH]ccn23)c1 | 1% | -0.16
84 | Cc1c(CN2CC[C@H](CNC(=O)c3cnccn3)C2)[nH]c2ccccc12 | 8% | -1
85 | Cc1occc1CNCCc1cn(C)nn1 | -1% | 0.27
86 | O=C(NCc1ccncc1)c1ccc(N2CCCCS2(=O)=O)cc1 | -8% | 1.09
